Measurements as given in article PMC11389776 (2024).

Target: T1, M2 muscarinic acetylcholine receptor (Homo sapiens, UniProt P08172)
T1 chain: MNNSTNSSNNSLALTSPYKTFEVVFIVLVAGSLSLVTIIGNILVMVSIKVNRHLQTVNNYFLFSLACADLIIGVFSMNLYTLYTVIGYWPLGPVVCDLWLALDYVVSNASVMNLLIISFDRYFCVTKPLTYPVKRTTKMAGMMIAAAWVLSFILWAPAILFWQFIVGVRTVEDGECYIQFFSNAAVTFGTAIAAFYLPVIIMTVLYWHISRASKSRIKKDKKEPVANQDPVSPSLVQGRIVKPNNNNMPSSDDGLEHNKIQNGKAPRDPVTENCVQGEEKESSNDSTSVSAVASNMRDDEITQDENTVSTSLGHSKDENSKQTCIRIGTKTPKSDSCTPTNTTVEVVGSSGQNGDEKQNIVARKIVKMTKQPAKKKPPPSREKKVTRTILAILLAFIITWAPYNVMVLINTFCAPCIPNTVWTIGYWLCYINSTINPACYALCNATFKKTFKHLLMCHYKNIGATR
Test: [3H]-NMS radioligand binding, allosteric ternary complex model

B1: Gi1 heterotrimer (protein)
chain: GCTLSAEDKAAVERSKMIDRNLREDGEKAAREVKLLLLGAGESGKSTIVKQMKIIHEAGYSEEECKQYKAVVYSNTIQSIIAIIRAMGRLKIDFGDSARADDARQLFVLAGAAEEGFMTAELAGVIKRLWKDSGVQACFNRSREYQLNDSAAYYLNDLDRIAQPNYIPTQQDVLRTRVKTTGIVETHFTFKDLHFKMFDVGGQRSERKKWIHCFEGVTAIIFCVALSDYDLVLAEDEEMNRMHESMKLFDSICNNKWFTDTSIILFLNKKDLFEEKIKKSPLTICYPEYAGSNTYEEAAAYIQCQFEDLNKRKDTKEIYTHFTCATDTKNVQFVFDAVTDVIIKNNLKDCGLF
modifications: NMS-bound receptor
Kd: ~42 nM
